SMILES strings stand for the structures. Hit rate of the full screen: of about 110,000 compounds, about 230 (0.21%) showed an effect of 50% or more. Some of the results follow.
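Also: 30 min substrate incubation versus DMSO and 10 µM JCP410 controls.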

The target in this experiment is DPAP1 (Plasmodium falciparum, UniProt Q8IIJ9). The experiment can be described thus: primary screen, percent inhibition; read by cleavage of a fluorogenic dipeptide substrate; higher = more effect of the substance. More on the design: species or system P. falciparum D10 trophozoite lysates; single well.
Sequence of DPAP1 (Q8IIJ9 whole entry, looked up): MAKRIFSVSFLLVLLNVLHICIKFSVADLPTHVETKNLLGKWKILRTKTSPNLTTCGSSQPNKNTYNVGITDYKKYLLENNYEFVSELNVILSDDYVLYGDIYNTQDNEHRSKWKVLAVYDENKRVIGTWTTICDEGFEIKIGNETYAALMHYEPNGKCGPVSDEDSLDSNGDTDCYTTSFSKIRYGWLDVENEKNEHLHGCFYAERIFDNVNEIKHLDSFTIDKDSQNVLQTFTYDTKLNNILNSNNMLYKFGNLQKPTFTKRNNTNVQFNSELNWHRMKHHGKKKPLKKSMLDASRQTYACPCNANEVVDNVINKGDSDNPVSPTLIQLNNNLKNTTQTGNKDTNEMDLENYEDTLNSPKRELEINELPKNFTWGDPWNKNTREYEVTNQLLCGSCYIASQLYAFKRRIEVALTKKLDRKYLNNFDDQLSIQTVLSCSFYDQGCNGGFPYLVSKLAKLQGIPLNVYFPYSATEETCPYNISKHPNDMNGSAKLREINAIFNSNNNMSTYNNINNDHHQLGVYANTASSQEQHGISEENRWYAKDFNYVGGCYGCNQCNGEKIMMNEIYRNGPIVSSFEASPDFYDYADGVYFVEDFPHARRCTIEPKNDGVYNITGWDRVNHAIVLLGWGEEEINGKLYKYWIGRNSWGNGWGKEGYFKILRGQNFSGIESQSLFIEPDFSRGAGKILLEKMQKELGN
For the compound `COc1ccc(-c2cc(C(=O)N3CCN(C)CC3)c3ccccc3n2)cc1`, the “% Inhibition @ 10 uM” value is reported as 1.03%. The figure for `Cc1cc(C)n(CC(O)Cn2c3ccccc3c3ccccc32)n1` (stereo not drawn) is -10.2%.

For `Cc1cc(O)nc2c1c(O)nn2C1CCOC(C)(C)C1` (stereo not drawn), the “% Inhibition @ 10 uM” value was found to be 2.84%. As for `CC(C)NC(=O)c1cnn(-c2ccccc2)c1-n1cccc1`, the figure is -3.35%; as for `CC(C)C(=O)N1CCN(c2ccc(NC(=O)Cc3ccccc3)cc2Cl)CC1`, 5.08%. As for `CN(C(=O)c1ccco1)c1ccccc1`, the figure is 1.8%; as for `CCc1c(C)sc(NC(=O)Cn2nc(C(F)(F)F)c(Br)c2C)c1C(N)=O`, 5.09%; as for `Cc1ccccc1OCCCCCCN1CCCC1`, -0.693%. Take `CCc1ccc(CN(C)CCc2ccccn2)cc1`: the “% Inhibition @ 10 uM” value stood at 1.83%. As for `Cc1nn2c3c(cnc2c1-c1ccccc1)C(=O)CC(C)C3` (stereo not drawn), the figure is -5.2%; as for `Cc1ccc(NC(=O)CC2Sc3ccccc3NC2=O)c([N+](=O)[O-])c1` (stereo not drawn), -0.424%. The figure for `CSC1=NC(C)(C)Cc2cc3c(cc21)OCCO3` is -5.62%; for `O=C(Nc1cccc2cccnc12)c1cccnc1` it is -6.65%.

As to `CCC(Oc1ccccc1)C(=O)Nc1nn2c(-c3ccco3)nnc2s1` (stereo not drawn), the “% Inhibition @ 10 uM” value is 7.1%. As for `N#CCNC(=O)C1(NC(=O)OCc2ccccc2)CCCCC1`, the figure is -6.46%.

Consider `O=c1c2c(-c3ccccc3)csc2nc2c3ccccc3c(NCCCO)nn12`, for which the “% Inhibition @ 10 uM” value was 0.835%. As for `CCOc1ccccc1C(=O)Nc1c(-c2cccs2)nc2cc(C)ccn12`, the “% Inhibition @ 10 uM” value is given as 0.121%. The figure for `O=C(O)CSCCc1ccncc1` is 1.8%; for `COc1cc2c(cc1OC)Sc1ccccc1C(N1CCN(C)CC1)C2` (stereo not drawn) it is 4.64%. As for `COc1ccc(C2C3=C(O)CC(C)(C)CC3=Nc3nc4ccccc4n32)c(OC)c1OC` (stereo not drawn), the figure is 1.73%; as for `CCCC(=O)N1CCN(c2ccc(NC(=O)c3ccco3)cc2)CC1`, -0.519%; as for `O=C(Nc1nc2ccccc2s1)c1ccc(Br)cc1`, 2.63%. The figure for `Cc1nc2ncnn2c(C)c1CCC(=O)NCc1ccc2c(c1)OCO2` is 2.93%; for `CNCc1ccccc1Sc1ccc(OC)c(OC)c1` it is -6.37%; for `COc1ccc(NC(=O)CC23CC4CC(CC(C4)C2)C3)cn1` it is -6.42%. `COc1cc(OC)cc(C2c3[nH]c4ccccc4c3CCN2C(C)=O)c1` (stereo not drawn): the “% Inhibition @ 10 uM” value is -5.32%. The figure for `O=C(Cc1ccccc1)N1CCN(c2ccc(Cl)cc2)CC1` is -3.49%.

`COCCN1C(=O)c2ccccc2C(C(=O)NCc2ccccc2OC)C1c1c[nH]c2ccccc12` (stereo not drawn): the “% Inhibition @ 10 uM” value is given as 4.58%. As for `N#CCNC(=O)[C@H](CSCc1ccccc1)NC(=O)c1ccc2[nH]ccc2c1`, the figure is -0.214%; as for `CCN(CC)C(=O)CN(Cc1ccc(Br)cc1)S(=O)(=O)c1ccc(C)cc1`, -1.6%.
